Measured values as given in PubChem BioAssay AID485294 (National Center for Advancing Translational Sciences (NCATS), 2010).
Screen size: about 370,000 compounds; about 150 (0.041%) were called active. Inconclusive results, whose numbers are uncertain, are shown with a selection of clear calls. Calls follow the shape of the dose curve; as a rule, active = well fitted inhibition curve with a large enough effect; inconclusive = small, poorly fitted or top-dose-only effect; inactive = flat fitted curve, though single readings scatter. No potency is given beside an inconclusive call; the fits are too rough.

Target: Beta-lactamase (Escherichia coli (strain K12)) (UniProt P00811)
Assay: qHTS Inhibitors of AmpC Beta-Lactamase (assay with detergent); also: nearly all actives have a fitted effect of over 25% in size;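 as to activity change, negative = inhibition: 0% = no-compound wells and -100% = no-enzyme wells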
Settings: AmpC hydrolysis of nitrocefin, absorbance 480 nm, 0.01% Triton; activity change, negative = inhibition: at 114 µM (top of the series)
Method in brief: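 AmpC (5.3 nM in the dispensed reagent) in 20 mM phosphate pH 7.0 with 0.01% (detergent screen) or 0.0001% Triton X-100 was preincubated with compounds for 15 min at room temperature. Nitrocefin was then added from an 800 uM solution, and hydrolysis was followed at 480 nm.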
Potency is read from the fitted curve at half-maximal effect; tags tell the direction and shape of the fitted curve.

Sequence of UniProt P00811 (P00811 whole entry, looked up): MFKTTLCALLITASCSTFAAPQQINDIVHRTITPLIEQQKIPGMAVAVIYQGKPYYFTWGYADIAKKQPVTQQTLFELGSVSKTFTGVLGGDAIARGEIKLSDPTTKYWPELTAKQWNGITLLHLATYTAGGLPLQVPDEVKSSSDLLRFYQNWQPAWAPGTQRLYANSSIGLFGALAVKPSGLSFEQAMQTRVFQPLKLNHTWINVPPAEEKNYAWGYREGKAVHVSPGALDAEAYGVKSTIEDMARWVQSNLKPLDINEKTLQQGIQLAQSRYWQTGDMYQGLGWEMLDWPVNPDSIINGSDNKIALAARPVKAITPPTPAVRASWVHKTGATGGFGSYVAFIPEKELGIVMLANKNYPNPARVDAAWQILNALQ

SMILES | Potency | activity change, negative = inhibition
COC(=O)c1cccc(N(C(=O)CNC(=O)c2ccco2)C(C(=O)NC2CCCC2)c2ccco2)c1 (centres undefined) | inconclusive [inhibitor, partial curve, poor fit] | 
O=C(N/N=C/c1ccco1)c1cc(-c2cccc3ccccc23)n[nH]1 |  | inactive: 2.41%
Nc1ccc2nc3c(=O)[nH]c(=S)[nH]c3nc2c1 | active: 50.1 µM | 
CCN1CCN(C(=O)c2cc3c(s2)-c2ccccc2S(=O)(=O)C3)CC1 | inconclusive [inhibitor, full curve, poor fit] | 
c1ccc2nc(-c3ccncc3)ccc2c1 |  | inactive: -2.22%
O=C(c1cccn2c(=O)c3cc(Cl)ccc3nc12)N1CCC2(CC1)OCCO2 | inconclusive [inhibitor, single point] | 
CCn1c(C)cc(/C=C2/NC(=O)N(Cc3ccccc3F)C2=O)c1C |  | inactive: -9.49%
O=C(O)C1CCCN1C(=O)C12CC3CC(CC(C3)C1)C2 (centres undefined) | inconclusive [inhibitor, partial curve, poor fit] | 
O=c1cc(O)c2sc(Nc3ccc(F)c(Cl)c3)nc2[nH]1 |  | inactive: 4.35%
CCOc1ccc(OCCNC2CCCC2)cc1 | inconclusive [inhibitor, full curve, poor fit] | 
COc1ccc(NC(=O)COC(=O)c2ccc3ccccc3n2)cc1 |  | inactive: 4.01%
Cc1ccccc1C(=O)Nc1c2c(nn1C(C)(C)C)CS(=O)(=O)C2 |  | inactive: -6.12%
O=C(CCOc1ccccc1)Nc1ccccc1F |  | inactive: 0.418%
Cc1cc(N/N=C/c2ccc(O)cc2O)c2ccccc2n1 |  | inactive: 6.05%
COc1ccc2cc(C#N)c(NC(C)C)nc2c1 | inconclusive [inhibitor, full curve, poor fit] | 
CC1(C)Cc2c(sc(NC(=O)c3ccco3)c2C(=O)O)CO1 |  | inactive: -11%
Cc1c(S(=O)(=O)Nc2ccc3c(c2)OCCO3)c(=O)n(C)c(=O)n1C | inconclusive [inhibitor, full curve, poor fit] | 
O=C(CCNC(=O)c1ccccc1Cl)NCc1ccncc1 | inconclusive [inhibitor, full curve, poor fit] | 
O=C(NNC(=O)c1ccc(S(=O)(=O)N2CCCC2)cc1)c1ccc(Br)cc1 | inconclusive [inhibitor, full curve, poor fit] | 
O=C(N/N=C/c1ccc(Br)cc1)c1cc[n+](Cc2ccccc2)cc1 | inconclusive [inhibitor, partial curve] | 
Cc1cc(NC(=O)Cc2ccsc2)ccc1Br | inconclusive [inhibitor, partial curve, poor fit] | 
O=C(c1ccco1)N1CCN(c2ccc(Cl)cc2)CC1 | inconclusive [inhibitor, full curve, poor fit] | 
CN(C)c1ccc(NC(=O)CSC2=Nc3ccccc3C3=NC(CCC(=O)NCc4cccs4)C(=O)N23)cc1 (centres undefined) | inconclusive [inhibitor, single point] | 

SMILES | Potency | activity change, negative = inhibition
Cc1ccc(NC(=O)CSCC(=O)Nc2nnc(C)s2)cc1 | inconclusive [inhibitor, full curve, poor fit] | 
COc1ccc(N(C(=O)c2cnsn2)C(C(=O)NC2CCCCC2)c2ccncc2)cc1 (centres undefined) |  | inactive: 0.936%
Cn1cccc1/C=N/NC(=O)C12CC3CC(CC(C3)C1)C2 | inconclusive [inhibitor, full curve, poor fit] | 
COC(=O)[C@]1(C)CCC[C@@]2(C)C3CC[C@]4(OC(C)=O)C[C@@]3(CCC21)CC4=O (some centres undefined) |  | inactive: 2.8%
Cc1ccc(S(=O)(=O)C(c2ccccc2)c2c(C)noc2C)cc1 (centres undefined) | inconclusive [inhibitor, partial curve] | 
O=C(COC(=O)CCC(=O)c1ccc(F)cc1)Nc1cccc(S(=O)(=O)N2CCOCC2)c1 | inconclusive [inhibitor, full curve, poor fit] | 
O=Cc1ccc(-n2cc(C=O)c3ccccc32)cc1 | inconclusive [inhibitor, partial curve, poor fit] | 
CCc1ccc(NC(=O)C(=O)NCC2CCCO2)cc1 (centres undefined) | inconclusive [inhibitor, full curve, poor fit] | 
O=S(=O)(Nc1ccc(S(=O)(=O)Nc2cccc3ccccc23)cc1)c1ccccc1 | inconclusive [inhibitor, full curve, poor fit] | 
COc1ccc(C(=O)NC2CCN(S(=O)(=O)c3ccc(C)cc3)CC2)cc1 | inconclusive [inhibitor, full curve, poor fit] | 
C=CCn1c(SCc2c(F)c(F)c(F)c(F)c2F)nc(O)cc1=O | inconclusive [inhibitor, full curve] | 
COc1cc(-c2nc(-c3cccc(C(F)(F)F)c3)no2)cc(OC)c1OC | inconclusive [inhibitor, full curve, poor fit] | 
COc1ccc(O)c(-c2cc(-c3ccccc3[N+](=O)[O-])[nH]n2)c1 | inconclusive [inhibitor, partial curve, poor fit] | 
CCCCn1c(SCC(=O)c2ccc3c(c2)OCCO3)nnc1-c1ccco1 |  | inactive: 0.831%
CCc1nn2c(=O)cc(COC(=O)C(CC)c3ccccc3)nc2s1 (centres undefined) |  | inactive: 22.8%
COc1cccc(-c2cc(C(F)(F)F)nc(NCc3ccco3)n2)c1 | inconclusive [inhibitor, partial curve, poor fit] | 
CCOC(=O)C1=C(COC(=O)/C=C/c2ccc(C)o2)NC(=O)NC1C (centres undefined) |  | inactive: -6.99%
Cc1ccc(-n2nc(C)c3c(C)c(CCC(=O)NCc4ccco4)c(C)nc32)cc1 | inconclusive [inhibitor, full curve] | 
CC(=O)c1cccc(OCC(O)CN2CC=C(c3ccccc3)CC2)c1 (centres undefined) | inconclusive [inhibitor, single point] | 
O=C(N=Nc1c(O)[nH]c2ccc(Br)cc12)c1cc(-c2cccc3ccccc23)n[nH]1 | inconclusive [inhibitor, partial curve, poor fit] | 
O=C(NCc1ccco1)c1cnccn1 | inconclusive [inhibitor, full curve, poor fit] | 
Cc1cc(C)n(C(C)CC(=O)NCc2ccc(Cl)cc2)n1 (centres undefined) |  | inactive: 21.6%
COc1ccc(C)cc1NC(=O)NCc1ccccn1 | inconclusive [inhibitor, full curve] | 

SMILES | Potency | activity change, negative = inhibition
CC1(C)CC(=O)N(CC(=O)NCc2ccc(F)cc2)c2ccccc2S1(=O)=O | inconclusive [inhibitor, full curve, poor fit] | 
O=S(=O)(c1cccc(NC(=S)N2CCN(c3ccc(F)cc3)CC2)c1)C(F)F | inconclusive [inhibitor, partial curve, poor fit] | 
O=C(CSc1n[nH]c(=O)n1C1CC1)Nc1ccccc1 | inconclusive [inhibitor, single point] | 
Cc1nc2ccn(Cc3ccco3)c(=O)c2cc1C(=O)NCc1ccc(F)cc1 |  | inactive: 17.7%
Cc1ccc(S(=O)(=O)NCCc2csc(-c3cccc(F)c3)n2)cc1 |  | inactive: 19.3%
CC(=O)Nc1ccc(S(=O)(=O)N(C)CC(=O)OCC(=O)N2CC(C)OC(C)C2)cc1 (centres undefined) | inconclusive [inhibitor, full curve] | 
COc1ccc(Cn2c(=O)sc3ccccc3c2=O)cc1 | inconclusive [inhibitor, full curve, poor fit] | 
Cc1ccc(CNC(=O)CS(=O)Cc2nc(-c3ccccc3C)oc2C)cc1 (centres undefined) | inconclusive [inhibitor, full curve, poor fit] | 
CC(CCc1ccccc1)NC(=O)CNC(=O)c1ccccc1Br (centres undefined) |  | inactive: 10.3%
CC(C)(C)Nc1nc(Oc2ccc(=O)n(-c3ccccc3)n2)nc(N2CCOCC2)n1 | inconclusive [inhibitor, full curve, poor fit] | 
Cc1ccc(Nc2ccc(N3CCN(C(=O)c4ccc([N+](=O)[O-])cc4)CC3)nn2)cc1 |  | inactive: 4.43%
O=C(CCCOc1ccccc1)N1CCN(S(=O)(=O)c2cccc(F)c2)CC1 | inconclusive [inhibitor, partial curve, poor fit] | 
COc1ccc(Nc2ncnc3c2cnn3-c2ccccc2)cc1OC | inconclusive [inhibitor, full curve] | 
Cc1c(CNC(=O)c2c([N+](=O)[O-])cnn2C)cnn1C | inconclusive [inhibitor, partial curve, poor fit] | 
CCOc1ccc(S(=O)(=O)N(C)c2ccc(OCC(=O)NCCc3ccc(OC)cc3)cc2)cc1 |  | inactive: 1.61%
c1ccc2c(c1)CC1(CCCC1)n1nnnc1-2 | inconclusive [inhibitor, full curve] | 
CCn1c(COc2cccc(OC)c2)nnc1SCC(=O)Nc1ccccc1C(=O)OC | inconclusive [inhibitor, full curve, poor fit] | 
C(=N\N1CCOCC1)/c1nc(-c2ccccc2)n2ccccc12 | inconclusive [inhibitor, single point] | 
O=C(CN1CCN(Cc2ccccc2Cl)C1=O)NC1CCCCCC1 | inconclusive [inhibitor, full curve, poor fit] | 
CN(C)C(=O)Oc1cccc(OCc2n(C)c3ccccc3[n+]2C)c1 |  | inactive: -4.8%
CCCCN(CC)C(=O)c1cc2c(=O)n3cccc(C)c3nc2s1 | inactive | 
O=C(NCCc1ccccc1)c1ccc2c(c1)N(Cc1ccc(F)cc1)C(=O)c1ccccc1S2 |  | inactive: -1.13%
CN(C)C(=S)Oc1ccccc1-c1ccccc1OC(=S)N(C)C | inconclusive [inhibitor, full curve, poor fit] | 
